This is one part of the list.
Key:
Assay in all cases: glycan array binding signal (z-score within array); higher = stronger binding
Settings in all cases: glycan notation: IUPAC condensed, linker removed
[1] = target: GlcNAc(b1-4)GlcNAc(b1-4)GlcNAc
How it was run: (§1)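 From the Consortium for Functional Glycomics database, 3228 arrays were curated, keeping only those whose protein sequence was available. Binding is given as a within-array Z-score averaged across arrays sharing a protein sequence and across linkers. Negative Z-scores can be read as non-binding.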

[2] = target: GlcNAc(b1-4)GlcNAc(b1-4)GlcNAc(b1-4)GlcNAc(b1-4)GlcNAc
How it was run: as §1

[3] = target: GlcNAc(b1-4)GlcNAc(b1-4)GlcNAc(b1-4)GlcNAc(b1-4)GlcNAc(b1-4)GlcNAc
How it was run: as §1

[4] = target: GlcNAc(b1-4)[GlcNAc(b1-6)]GalNAc
How it was run: as §1

[5] = target: GlcNAc(b1-6)Gal(b1-4)GlcNAc
How it was run: as §1

GlcNAc(b1-6)GalNAc = target: GlcNAc(b1-6)GalNAc
How it was run: as §1

GlcNAc3Prop(b1-4)GlcNAc = target: GlcNAc3Prop(b1-4)GlcNAc
How it was run: as §1

[6] = target: GlcNAc6S(b1-3)Gal(b1-4)GlcNAc
How it was run: as §1

Kdn(a2-3)Gal(b1-3)GalNAc = target: Kdn(a2-3)Gal(b1-3)GalNAc
How it was run: as §1

Kdn(a2-3)Gal(b1-3)GlcNAc = target: Kdn(a2-3)Gal(b1-3)GlcNAc
How it was run: as §1

Kdn(a2-3)Gal(b1-4)Glc = target: Kdn(a2-3)Gal(b1-4)Glc
How it was run: as §1

Kdn(a2-3)Gal(b1-4)GlcNAc = target: Kdn(a2-3)Gal(b1-4)GlcNAc
How it was run: as §1

[7] = target: Kdn(a2-3)Gal(b1-4)[Fuc(a1-3)]GlcNAc
How it was run: as §1

Kdn(a2-6)Gal(b1-4)GlcNAc = target: Kdn(a2-6)Gal(b1-4)GlcNAc
How it was run: as §1

[8] = target: Man(a1-2)Man(a1-2)Man(a1-3)Man
How it was run: as §1

[9] = target: Man(a1-2)Man(a1-2)Man(a1-6)[Man(a1-3)]Man
How it was run: as §1

Man(a1-2)Man(a1-3)Man = target: Man(a1-2)Man(a1-3)Man
How it was run: as §1

[10] = target: Man(a1-2)Man(a1-3)[Man(a1-2)Man(a1-6)]Man
How it was run: as §1

[11] = target: Man(a1-2)Man(a1-3)[Man(a1-2)Man(a1-6)]Man(a1-6)[Man(a1-2)Man(a1-2)Man(a1-3)]Man
How it was run: as §1

[12] = target: Man(a1-2)Man(a1-3)[Man(a1-2)Man(a1-6)]Man(a1-6)[Man(a1-2)Man(a1-2)Man(a1-3)]Man(b1-4)GlcNAc(b1-4)GlcNAc
How it was run: as §1

[13] = target: Man(a1-2)Man(a1-3)[Man(a1-6)]Man(a1-6)[Man(a1-2)Man(a1-3)]Man(b1-4)GlcNAc(b1-4)GlcNAc
How it was run: as §1

[14] = target: Man(a1-2)Man(a1-6)[Man(a1-3)]Man(a1-6)[Man(a1-2)Man(a1-2)Man(a1-3)]Man
How it was run: as §1

[15] = target: Man(a1-2)Man(a1-6)[Man(a1-3)]Man(a1-6)[Man(a1-2)Man(a1-2)Man(a1-3)]Man(b1-4)GlcNAc(b1-4)GlcNAc
How it was run: as §1

Man(a1-3)[Man(a1-6)]Man = target: Man(a1-3)[Man(a1-6)]Man
How it was run: as §1

[16] = target: Man(a1-3)[Man(a1-6)]Man(a1-6)[Man(a1-2)Man(a1-3)]Man(b1-4)GlcNAc(b1-4)GlcNAc
How it was run: as §1

[17] = target: Man(a1-3)[Man(a1-6)]Man(a1-6)[Man(a1-3)]Man
How it was run: as §1

[18] = target: Man(a1-3)[Man(a1-6)]Man(a1-6)[Man(a1-3)]Man(b1-4)GlcNAc(b1-4)GlcNAc
How it was run: as §1

[19] = target: Man(a1-3)[Man(a1-6)]Man(b1-4)GlcNAc(b1-4)GlcNAc
How it was run: as §1

Man(a1-6)Man = target: Man(a1-6)Man
How it was run: as §1

Man(b1-4)GlcNAc = target: Man(b1-4)GlcNAc
How it was run: as §1

Neu5Ac(a2-3)Gal = target: Neu5Ac(a2-3)Gal
How it was run: as §1

[20] = target: Neu5Ac(a2-3)Gal(b1-3)GalNAc
How it was run: as §1

[21] = target: Neu5Ac(a2-3)Gal(b1-3)GalNAc(b1-3)Gal(a1-4)Gal(b1-4)Glc
How it was run: as §1

[22] = target: Neu5Ac(a2-3)Gal(b1-3)GalNAc(b1-3)Gal(b1-4)GlcNAc
How it was run: as §1

[23] = target: Neu5Ac(a2-3)Gal(b1-3)GalNAc(b1-4)[Neu5Ac(a2-3)]Gal(b1-4)Glc
How it was run: as §1

[24] = target: Neu5Ac(a2-3)Gal(b1-3)GalNAc6S
How it was run: as §1

[25] = target: Neu5Ac(a2-3)Gal(b1-3)GlcNAc
How it was run: as §1

[26] = target: Neu5Ac(a2-3)Gal(b1-3)GlcNAc(b1-3)Gal(b1-3)GlcNAc
How it was run: as §1

[27] = target: Neu5Ac(a2-3)Gal(b1-3)GlcNAc6S
How it was run: as §1

[28] = target: Neu5Ac(a2-3)Gal(b1-3)[Fuc(a1-4)]GlcNAc
How it was run: as §1

[29] = target: Neu5Ac(a2-3)Gal(b1-3)[Fuc(a1-4)]GlcNAc(b1-3)Gal(b1-3)[Fuc(a1-4)]GlcNAc
How it was run: as §1

[30] = target: Neu5Ac(a2-3)Gal(b1-3)[Fuc(a1-4)]GlcNAc(b1-3)Gal(b1-4)[Fuc(a1-3)]GlcNAc
How it was run: as §1

[31] = target: Neu5Ac(a2-3)Gal(b1-3)[Neu5Ac(a2-3)Gal(b1-4)]GlcNAc
How it was run: as §1

[32] = target: Neu5Ac(a2-3)Gal(b1-3)[Neu5Ac(a2-6)]GalNAc
How it was run: as §1

Neu5Ac(a2-3)Gal(b1-4)Glc = target: Neu5Ac(a2-3)Gal(b1-4)Glc
How it was run: as §1

[33] = target: Neu5Ac(a2-3)Gal(b1-4)GlcNAc
How it was run: as §1

[34] = target: Neu5Ac(a2-3)Gal(b1-4)GlcNAc(b1-2)Man(a1-3)[GlcNAc(b1-2)Man(b1-4)GlcNAc(b1-2)Man(a1-6)]Man(b1-4)GlcNAc(b1-4)GlcNAc
How it was run: as §1

[35] = target: Neu5Ac(a2-3)Gal(b1-4)GlcNAc(b1-2)Man(a1-3)[Neu5Ac(a2-6)Gal(b1-4)GlcNAc(b1-2)Man(a1-6)]Man(b1-4)GlcNAc(b1-4)GlcNAc
How it was run: as §1

[36] = target: Neu5Ac(a2-3)Gal(b1-4)GlcNAc(b1-3)Gal(b1-3)GlcNAc
How it was run: as §1

[37] = target: Neu5Ac(a2-3)Gal(b1-4)GlcNAc(b1-3)Gal(b1-4)GlcNAc
How it was run: as §1

[38] = target: Neu5Ac(a2-3)Gal(b1-4)GlcNAc(b1-3)Gal(b1-4)GlcNAc(b1-3)Gal(b1-4)GlcNAc
How it was run: as §1

[39] = target: Neu5Ac(a2-3)Gal(b1-4)GlcNAc(b1-3)Gal(b1-4)[Fuc(a1-3)]GlcNAc
How it was run: as §1

[40] = target: Neu5Ac(a2-3)Gal(b1-4)GlcNAc(b1-3)GalNAc
How it was run: as §1

[41] = target: Neu5Ac(a2-3)Gal(b1-4)GlcNAc(b1-6)[Gal(b1-3)]GalNAc
How it was run: as §1

[42] = target: Neu5Ac(a2-3)Gal(b1-4)GlcNAc(b1-6)[Neu5Ac(a2-3)Gal(b1-3)]GalNAc
How it was run: as §1

[43] = target: Neu5Ac(a2-3)Gal(b1-4)GlcNAc6S
How it was run: as §1

[44] = target: Neu5Ac(a2-3)Gal(b1-4)[Fuc(a1-3)]GlcNAc
How it was run: as §1

B1: DETC sTCR (Mus musculus) (protein)
chain: LDVYLEPVAKTFTVVAGDPASFYCTVTGGDMKNYHMSWYKKNGTNALFLVYKLNSNSTDGGKSNLKGKINISKNQFILDIQKATMKDAGTYYCGSDIGGSSWDTRQMFFGTGIELFVEPKSQPPAKPSVFIMKNGTNVACLVKDFYPKEVTISLRSSKKIVEFDPAIVISPSGKYSAVKLGQYGDSNSVTCSVQHNSETVHSTDFEPYANSFNNEKLPEPENDTQISEPCSSADLVPRGSTTAPSAQLKKKLQALKKKNAQLKWKLQALKKKLAQHHHHHHDSWISQDQLSFTRRPNKTVHISCKLSGVPLHNTIVHWYQLKEGEPLRRIFYGSVKTYKQDKSHSRLEIDEKDDGTFYLIINNVVTSDEATYYCACWDSSGFHKVFAEGTKLIVIPSDKRLDADISPKPTIFLPSVAETNLHKTGTYLCLLEKFFPDVIRVYWKEKDGNTILDSQEGDTLKTNDTYMKFSWLTVPERAMGKEHRCIVKHENNKGGADQEIFFPSIKKVAVSTKPTTCSSADLVPRGSTTAPSAQLEKELQALEKENAQLEWELQALEKELAQLNDIFEAQKIEW
glycan array binding signal (z-score) [1]: -0.563 | glycan array binding signal (z-score) [2]: 0.231 | glycan array binding signal (z-score) [3]: 0.14 | glycan array binding signal (z-score) [4]: -0.619 | glycan array binding signal (z-score) [5]: -0.264 | glycan array binding signal (z-score) (GlcNAc(b1-6)GalNAc): 0.306 | glycan array binding signal (z-score) (GlcNAc3Prop(b1-4)GlcNAc): -0.24 | glycan array binding signal (z-score) [6]: 0.667 | glycan array binding signal (z-score) (Kdn(a2-3)Gal(b1-3)GalNAc): -0.484 | glycan array binding signal (z-score) (Kdn(a2-3)Gal(b1-3)GlcNAc): -0.409 | glycan array binding signal (z-score) (Kdn(a2-3)Gal(b1-4)Glc): -0.637 | glycan array binding signal (z-score) (Kdn(a2-3)Gal(b1-4)GlcNAc): -0.276 | glycan array binding signal (z-score) [7]: -0.864 | glycan array binding signal (z-score) (Kdn(a2-6)Gal(b1-4)GlcNAc): -0.381 | glycan array binding signal (z-score) [8]: -0.561 | glycan array binding signal (z-score) [9]: 0.993 | glycan array binding signal (z-score) (Man(a1-2)Man(a1-3)Man): -0.043 | glycan array binding signal (z-score) [10]: 2.29 | glycan array binding signal (z-score) [11]: -0.534 | glycan array binding signal (z-score) [12]: -0.22 | glycan array binding signal (z-score) [13]: 0.382 | glycan array binding signal (z-score) [14]: -0.197 | glycan array binding signal (z-score) [15]: -0.373 | glycan array binding signal (z-score) (Man(a1-3)[Man(a1-6)]Man): 0.885 | glycan array binding signal (z-score) [16]: -0.581 | glycan array binding signal (z-score) [17]: 0.347 | glycan array binding signal (z-score) [18]: -0.543 | glycan array binding signal (z-score) [19]: -0.526 | glycan array binding signal (z-score) (Man(a1-6)Man): -0.626 | glycan array binding signal (z-score) (Man(b1-4)GlcNAc): 0.636 | glycan array binding signal (z-score) (Neu5Ac(a2-3)Gal): -0.674 | glycan array binding signal (z-score) [20]: 1.65 | glycan array binding signal (z-score) [21]: -0.384 | glycan array binding signal (z-score) [22]: -0.515 | glycan array binding signal (z-score) [23]: 0.102 | glycan array binding signal (z-score) [24]: 1.09 | glycan array binding signal (z-score) [25]: 1.16 | glycan array binding signal (z-score) [26]: 0.815 | glycan array binding signal (z-score) [27]: -0.644 | glycan array binding signal (z-score) [28]: -0.698 | glycan array binding signal (z-score) [29]: -0.1 | glycan array binding signal (z-score) [30]: -0.613 | glycan array binding signal (z-score) [31]: -0.657 | glycan array binding signal (z-score) [32]: 0.424 | glycan array binding signal (z-score) (Neu5Ac(a2-3)Gal(b1-4)Glc): -0.588 | glycan array binding signal (z-score) [33]: -0.121 | glycan array binding signal (z-score) [34]: -0.044 | glycan array binding signal (z-score) [35]: -0.39 | glycan array binding signal (z-score) [36]: 0.859 | glycan array binding signal (z-score) [37]: -0.662 | glycan array binding signal (z-score) [38]: -0.518 | glycan array binding signal (z-score) [39]: -0.36 | glycan array binding signal (z-score) [40]: -0.126 | glycan array binding signal (z-score) [41]: 0.168 | glycan array binding signal (z-score) [42]: 0.244 | glycan array binding signal (z-score) [43]: -0.639 | glycan array binding signal (z-score) [44]: -0.251

— the supplement of paper PMC8728848
